Data from PubChem BioAssay AID588855 (National Center for Advancing Translational Sciences (NCATS), 2011).
The whole screen tested about 410,000 compounds, of which about 5,000 (1.2%) were called active. Inconclusive means that the source gave no clear call. Such entries were picked first, then a sample of the others. The call rests on the fitted dose curve; in most records, active means well fitted inhibition curve with a large enough effect; inconclusive means small, poorly fitted or top-dose-only effect; inactive means no such curve, though single readings can be large or run the other way. Potencies of inconclusive entries are doubtful fits and often do not repeat.
Potency means the concentration at half of the fitted maximal effect; tags describe the fitted curve by direction and shape.

Assay: qHTS for Inhibitors of TGF-b; further: nearly all actives have a fitted effect of over 65% in size
Settings: HepG2 CAGA-GFP TGF-b/SMAD3 reporter, GFP fluorescence, 18 h, TGF-beta stimulated, 500 pg/mL final; series mostly up to 46.1 µM
Method in brief: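 Using HEPG2 CAGA-GFP reporter cells at 1000 cells/well, we pinned test compounds, stimulated with recombinant TGF-beta (500 pg/mL final) and measured total well GFP after 18 h.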
In the case of `COc1cccc(NC(=O)Nc2nc(-c3ccc(OC)c(OC)c3)cs2)c1`, the Potency is reported as active: 11.2 µM. In the case of `O=C(CSc1cccc(C(F)(F)F)c1)N1CCN(S(=O)(=O)c2ccccc2)CC1`, the Potency is reported as “inactive”. For `CC(C)C[C@H](N)c1nnc(S(=O)(=O)Cc2cccc(F)c2)o1`, the Potency was active: 17.8 µM. With `O=C(Nc1ccc(Cl)cc1)c1cc(S(=O)(=O)N2CCCc3ccccc32)ccc1F` the Potency was inconclusive: 8.91 µM [inhibitor, partial curve, poor fit]. In the case of `O=C(CCCn1c(=O)[nH]c2ccsc2c1=O)N1CCN(c2cccc(C(F)(F)F)c2)CC1`, the Potency is reported as inconclusive: 22.4 µM [inhibitor, single point]. For `COc1ccc(/C=C2/SC(=S)N(CCCC(=O)Nc3ccc(O)cc3)C2=O)cc1`, the Potency was inconclusive: 31.6 µM [inhibitor, single point]. With `C[N+]1(CC(=O)c2ccc(I)cc2)CCOCC1` the Potency was “inactive”. With `CC(=O)N1c2c(cc(Br)cc2S(=O)(=O)Nc2ccc(OC(F)(F)F)cc2)CC1C` (stereo not drawn) the Potency was inconclusive: 11.2 µM [inhibitor, partial curve, poor fit]. In the case of `[O-]/C(=C(\C(=S)Nc1cccc2ccccc12)[n+]1ccccc1)c1ccc(Cl)s1`, the Potency is reported as “inactive”. With `Cc1ccc(C)c(OCCC(=O)Nc2cccc(S(=O)(=O)N3CCCCC3)c2)c1` the Potency was active: 12.6 µM. With `O=C1/C(=C/c2cccs2)COc2ccccc21` the Potency was inconclusive: 17.8 µM [inhibitor, single point]. In the case of `Cc1cc(C=NCCO)c(C)n1-c1cc(Cl)ccc1Cl`, the Potency is reported as inconclusive: 35.5 µM [inhibitor, single point]. With `Cc1ccc(C2c3c(-c4ccccc4O)n[nH]c3C(=O)N2CCc2ccccc2)cc1` (stereo not drawn) the Potency was active: 11.2 µM. In the case of `Cn1cc([N+](=O)[O-])c(C(=O)Nc2ccc(-c3nc4ccccc4[nH]3)cc2)n1`, the Potency is reported as inconclusive: 6.31 µM [inhibitor, full curve, poor fit]. For `CC(C)CCn1c(O)c(N=Nc2ccccn2)c2ccccc21`, the Potency was inconclusive: 35.5 µM [inhibitor, single point]. For `Cn1c(CN2CCOCC2)nnc1SCC(=O)NCCc1ccccc1`, the Potency was inconclusive: 35.5 µM [inhibitor, single point]. With `COc1ccccc1NC(c1cccnc1)c1ccc2cccnc2c1O` (stereo not drawn) the Potency was inconclusive: 35.5 µM [inhibitor, single point]. With `O=C(N/N=C/c1ccco1)c1ccncc1` the Potency was “inactive”. With `CCOCCCNS(=O)(=O)c1ccc(NC(=O)N2c3ccccc3Sc3ccccc32)cc1` the Potency was inconclusive: 15.8 µM [inhibitor, single point]. With `CCOc1ccc(CNC(=O)Cn2cc3c(n2)-c2c(oc(C(=O)N4CCCC4)c2C)CC3)cc1` the Potency was inconclusive: 10 µM [inhibitor, partial curve, poor fit]. For `Cc1nc(SCC(=O)Nc2ccc(S(=O)(=O)N3CCOCC3)cc2)c2c(C)c(C)sc2n1`, the Potency was inconclusive: 22.4 µM [inhibitor, single point]. For `O=C(Cc1ccc(Cl)cc1)NC(=S)Nc1ccccc1N1CCOCC1`, the Potency was inconclusive: 35.5 µM [inhibitor, single point]. For `COc1ccc2ccc(O)c(CN3CCN(S(=O)(=O)c4cc([N+](=O)[O-])ccc4C)CC3)c2c1`, the Potency was inconclusive: 35.5 µM [inhibitor, single point]. With `CCOC(=O)N1CCN(c2nc3ccc(C(=O)c4ccccc4)cc3n3cnnc23)CC1` the Potency was “inactive”. In the case of `COc1ccc(S(=O)(=O)N(CCc2ccccc2)CC(N)=O)cc1`, the Potency is reported as “inactive”. For `CCN(C(=O)CN1C(=O)NC(c2ccccc2)(c2ccc(C)c(C)c2)C1=O)C1CCCCC1` (stereo not drawn), the Potency was inconclusive: 20 µM [inhibitor, partial curve, poor fit]. For `COc1cccc(-n2c(=O)c3sccc3n(Cc3cc(=O)n4cc(Cl)ccc4n3)c2=O)c1`, the Potency was inconclusive: 11.2 µM [inhibitor, partial curve]. With `O=c1c2[nH]c3ccc(F)cc3c2ncn1CCC1=CCCCC1` the Potency was “inactive”. In the case of `CCCCNS(=O)(=O)c1ccc(NS(=O)(=O)c2c(C)cc(C)cc2C)cc1`, the Potency is reported as inconclusive: 25.1 µM [inhibitor, single point]. With `Cc1noc2ncnc(Sc3c(Cl)cccc3Cl)c12` the Potency was inconclusive: 35.5 µM [inhibitor, single point]. In the case of `CC1=NN(C(C#N)c2ccc(F)cc2)C(c2ccccc2)C1` (stereo not drawn), the Potency is reported as “inactive”. In the case of `NS(=O)(=O)c1ccc(CNC(=O)c2cc(=O)[nH]c3ccccc23)cc1`, the Potency is reported as “inactive”. For `CC(C)C(N)c1csc(NC(=O)Nc2cccc(C(F)(F)F)c2)n1` (stereo not drawn), the Potency was inconclusive: 35.5 µM [inhibitor, single point]. For `COc1ccc(Cl)cc1NC(=O)c1cc2ccccn2n1`, the Potency was inconclusive: 0.708 µM [inhibitor, full curve, poor fit]. In the case of `Cc1nc2nncn2c(Nc2ccc(F)cc2)c1C`, the Potency is reported as inconclusive: 4.47 µM [inhibitor, partial curve, poor fit]. With `CC(C)Oc1ccc(CNS(=O)(=O)c2csc(C(N)=O)c2)cc1` the Potency was inconclusive: 0.251 µM [inhibitor, full curve, poor fit]. For `COc1ccc(-c2nc(SCC(=O)Nc3ccc4c(c3)OCO4)c(-c3ccc(F)cc3)[nH]2)cc1OC`, the Potency was inconclusive: 0.562 µM [inhibitor, full curve, poor fit]. With `CCCN1C(=O)CC(=O)N=C1SCC(=O)Nc1ccccc1F` the Potency was “inactive”. In the case of `COc1cc(CN(CC(C)C)S(=O)(=O)c2ccccc2Br)cc(OC)c1`, the Potency is reported as inconclusive: 11.2 µM [inhibitor, partial curve]. In the case of `CCC(O)C1CCN(Cc2cn(Cc3ccccc3)nc2-c2cc3ccccc3o2)CC1` (stereo not drawn), the Potency is reported as inconclusive: 35.5 µM [inhibitor, single point]. For `CCOC(=O)/C(=C\c1ccc(OC(F)F)cc1)C1=Nn2c(nnc2-c2ccc(Cl)cc2)SC1`, the Potency was active: 3.98 µM. With `COc1cc(OC)cc(C(=O)Nc2ccc(N3CCOCC3)cc2N2CCOCC2)c1` the Potency was inconclusive: 22.4 µM [inhibitor, single point]. For `Cc1nc(-c2ccc(S(=O)(=O)Nc3ccc(OC(F)(F)F)cc3)cc2)co1`, the Potency was inconclusive: 35.5 µM [inhibitor, single point].
